Experimental data reported in the supplement of paper PMC4466236.
Over roughly 33,000 sequences, “E-score (dimensionless, -0.5 to 0.5)” has its median near -0.058; the highest 2% begin near 0.35. The list shows a part of the results.

These sequences were tested on MvaT (assay: PBM 8-mer E-score (mean of HK and ME arrays) (E-score (dimensionless, -0.5 to 0.5)); higher = stronger relative binding preference; most listed sequences are background and not binding sites).
Method in brief: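 Full-length P. aeruginosa MvaT, with glutathione S-transferase fused to its N-terminus (cloned into pTH6838 by isothermal assembly), was tested by protein binding microarray using a previously described protocol. Two universal double-stranded 60-mer arrays (ME and HK) were used, each with a constant 25-mer primer region and a variable 35-mer region covering all 8-mers. The rank-based 8-mer E-score (-0.5 to 0.5) is the mean of the two arrays, parsed with a custom Python script.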

Sequence | PBM 8-mer E-score
AGCCTCAT | -0.214
ATCTCATC | -0.00972
CAAATCCA | 0.0254
CGCCACCG | -0.158
CTGTACGA | -0.0883
AGTGTGAG | 0.0235
AAGGGTCT | -0.221
CTTGGATA | 0.0476
ACCAGTAG | -0.0146
ATTGGCGA | -0.1
GTTTAGGA | -0.00619
AGAGCGGA | -0.0697
AATCACCT | -0.0485
CTCACGTA | -0.0298
AAGTTTAA | 0.357
AAAGGGTT | -0.115
CGAACGTC | -0.286
ACATACAA | 0.362
GACCTGCA | -0.064
AATACAGT | 0.194
AGGTGCTG | -0.153
AAAATTAG | 0.162
AACGAGAC | 0.0319
CATACAAA | 0.206
AAACCCTG | -0.121

Sequence | PBM 8-mer E-score
CCCCAGCG | -0.0757
CACTCGGG | -0.309
TACCCCAA | -0.0573
TCGCATAA | 0.12
GTGATACA | 0.152
CATCCGTC | -0.323
AGATTGCC | -0.076
CGACAATA | 0.242
CTCCCAAG | -0.155
GTCCTTCA | -0.143
ATGCCTGA | -0.115
ATTAGCCC | 0.0535
ACCTAATC | -0.0335
AAAGATAT | 0.317
GAAACATC | 0.115
GAATGCCC | -0.204
ATGTGGAG | 0.0521
CACGCCCG | -0.2
CCAGATTC | 0.0138
TCGCAGCA | -0.0769
ATTGCGCG | 0.178
CATAAGGC | -0.0599
GGAAGCAA | -0.152
GACACGGC | -0.227
ATCATTTA | 0.275

Sequence | PBM 8-mer E-score
CCATGGAA | 0.063
GTGTGGAA | 0.0597
CTCTGTTA | 0.0156
ATTGGAAC | 0.154
AATGACCT | -0.158
GCACTGTA | 0.0342
CTACATCA | -0.0241
TAGTATCA | 0.0901
GAAAGGAA | -0.107
AGGTGATG | -0.263
ATAGACGG | -0.169
AGCGAGAG | -0.0951
CTGACCAG | -0.161
TAACTGTA | 0.28
AGTTACGC | 0.143
GCCACGAC | -0.0787
AGTAGAGG | -0.118
AAGGGTTC | -0.233
ACTTATTG | 0.29
ATTATGTG | 0.261
AAACTGAA | 0.115
ACGACCGG | -0.128
CGAGTTCA | 0.00938
AAGGATAC | -0.0729
GGGCCTAA | -0.25

Sequence | PBM 8-mer E-score
CCTTTACA | 0.0839
CCACGATA | 0.0949
ATGTCGTC | -0.187
ACTTCGCC | -0.0555
CTCTAATA | 0.364
ACCTCGTG | -0.139
AACAGCCA | -0.0713
GGATAGAA | 0.0177
GCTAGACA | -0.156
CCTGCGAG | -0.125
GCCCTGCA | -0.244
CTCCTGAA | -0.0675
AACCGAAG | 0.0622
AGACGTAA | -0.0505
AAGATACC | 0.0698
CGGCTGTA | -0.161
CCAGACAC | -0.185
CTCGGTCC | -0.125
CGCCCAAG | -0.185
TCGAATAA | 0.258
CGGTTACA | 0.0406
CGTGATAG | -0.0181
CATTACCC | -0.128
CATCGCCC | -0.238
CTAAACTA | 0.259

Sequence | PBM 8-mer E-score
ATTTTAAG | 0.225
ACAGGCTA | -0.0843
TGATTAAA | 0.27
ACCGAGAT | -0.0838
CACTCTCG | -0.245
AAGGGCGT | -0.135
AGGTAACG | -0.0912
CATTTTCG | 0.126
ATGTGTGA | 0.0741
ATCTTTCC | -0.106
GATACGTA | 0.038
CCATGCCA | -0.134
AGTGAAAG | 0.0564
CAAGGTCA | -0.148
ATTCTCGC | -0.0889
AAGTAATC | 0.186
ATCTTGGC | -0.136
GAACAGTC | -0.0493
AGAAAGAG | 0.00847
CAGGATAG | -0.173
AGGTGCCC | -0.338
ATGAACAT | 0.121
CAAACTAG | 0.076
CCCGTTTC | 0.0551
AGCGCCAG | -0.311

Sequence | PBM 8-mer E-score
CTGAATGC | -0.0524
ATCCATTG | 0.0602
GGCATGGA | -0.132
AGCACCCT | -0.0351
GTTATGTA | 0.165
ACTCAGGC | -0.167
CCTGTCAA | -0.0939
ATCCCGTG | -0.196
AGGAGCTG | -0.244
AAGGGCGA | -0.2
TCCAGGGA | -0.208
CACACTCC | 0.0189
ACAGGGCG | -0.185
CGGGAGAC | -0.225
GCTCGGGA | -0.249
AACATATC | 0.286
ACGCTGAG | -0.15
ACTCACCA | 0.0727
TAATGGAA | 0.132
CGAATCAC | -0.0955
AAAATACC | 0.265
AAGACCCC | -0.282
AATCAACC | -0.0344
AGAAGTGC | -0.0659
AGCAAGCT | -0.206

Sequence | PBM 8-mer E-score
GTGTTCTA | 0.0799
ACGGCGTA | -0.0699
ATTTGAGA | 0.124
AAGGAACC | -0.128
AAAAGTAT | 0.253
CTAAGAGC | -0.0147
AACCTCGA | -0.0439
CTAAATTC | 0.115
CGGTTCAC | -0.0321
TCCGCACA | -0.0291
CGTGGCGA | -0.235
ATAAAAAA | 0.387
GGGTACTA | -0.173
AACGTTAG | 0.212
CACTCCTA | -0.149
ATGAGGTA | -0.0736
GACTAAGA | 0.11
AAGACGTA | 0.0119
AAGCGGAT | 0.00854
ATCAGTTA | 0.2
CTTTTCTA | 0.155
AGGTGGAT | -0.182
